Experimental data: PubChem BioAssay AID1508624 (National Center for Advancing Translational Sciences (NCATS), 2021)
Among all 48,000 compounds or so, about 120 (0.25%) were called active. Not shown: some 4% with an inconclusive outcome. Calls follow the shape of the dose curve; as a rule, active = well fitted activation curve with a large enough effect; inconclusive = small, poorly fitted or top-dose-only effect, or another doubt; inactive = no such curve, though single readings can be large or run the other way. The list shows a part of the results.

Assay: Primary qHTS for Identification of Small Molecule Activators of Huntingtin-Antisense Promoter Activity; also: nearly all actives have a fitted effect of over 55% in size
Conditions: HEK293 HTT-AS promoter firefly luciferase reporter (activity 0% = vehicle and -100% = no light), 24 h; series mostly up to 57.5 µM; activity change, positive = activation: at the top concentration
In short: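 HEK293 luciferase promoter-reporter cells (2,500/well) plated 24 h, then compounds added at up to 57.5 uM final for 24 h at 37 °C. Firefly luminescence by Dual-Glo, normalized to vehicle (0%) and zero RLU (-100%).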

SMILES	activity change, positive = activation
CC(=O)Nc1ccc(NC(=O)CC2Sc3ccccc3NC2=O)cc1 (stereo not drawn)	inactive: -8.83%
Cc1ccc(Cl)cc1N1CCN(C(=O)c2cc(S(=O)(=O)N3CCC(C)CC3)cn2C)CC1	inactive: -43.2%
CCOc1ccc(CNC(=O)C2CCN(S(=O)(=O)c3c(C)noc3/C=C/c3ccc(C)cc3)CC2)cc1OC	inactive: 15.7%
Cc1c(CNCc2ccc(Cl)cc2)c(C(=O)O)c(C)n1Cc1ccc(F)cc1	inactive: -19.6%
CCOc1ccc(CNS(=O)(=O)c2ccc3[nH]c4c(c3c2)CCCC4)cc1OC	inactive: -28.4%
COc1ccc(NC(=O)CSc2nc3nc(C)cc(C)n3n2)cc1	inactive: -15.6%
COc1cccc(CNC(=O)CCc2nnc3n(C)c(=O)c4sccc4n23)c1	inactive: -4.36%
CCCN(CCC)CCCNC(=O)C1CCC(CNS(=O)(=O)c2ccc(NC(C)=O)cc2)CC1 (stereo not drawn)	inactive: -6.55%
COc1ccc(NC(=O)Cn2c(CCC(=O)O)ccc2-c2ccccc2)cc1Cl	inactive: -12.9%
COc1ccc(-c2noc(-c3ccc(NCc4ccc(C)cc4)c([N+](=O)[O-])c3)n2)cc1OC	inactive: -5.65%
Cn1c(=O)c2c(nc(SCC(=O)Nc3ccc(OC(F)(F)F)cc3)n2Cc2cccc(C(F)(F)F)c2)n(C)c1=O	inactive: -25%
Cc1ccc(S(=O)(=O)Nc2cc3c(cc2C)n(C)c(=O)c(=O)n3C)cc1	inactive: -18.5%
O=S1(=O)c2cccc3cccc(c23)N1CCCN1CCN(c2ccc(F)cc2)CC1	inactive: -19.2%
Cc1ccc(-c2onc(C)c2C)cc1S(=O)(=O)N1CCCCC1	inactive: -40.2%
Cc1cc(NC(=O)N2CC=C(c3c[nH]c4ccccc34)CC2)ccc1Br	inactive: -21.5%
O=C(Cn1c(=O)n(-c2ccc(F)cc2)c(=O)c2sc3ccccc3c21)N1CCCC1	inactive: -0.188%
CCOC(=O)c1sc2ccccc2c1S(=O)(=O)Nc1c(C)cccc1C	inactive: -18.6%
Cc1ccc(CSC2=Nc3ccccc3C3=NC(CCC(=O)N4CCN(c5ccccc5)CC4)C(=O)N23)cc1 (stereo not drawn)	inactive: 11.2%
CCOC(=O)c1c(N)n(-c2ccc(C)c(C)c2)c2nc3ccccc3nc12	inactive: -1.32%
COc1cc(CNC(=O)c2cc(-c3ccccc3)n[nH]2)cc(OC)c1OC	inactive: -13.4%
Cc1ccccc1NC(=O)CSc1nc(-c2ccc(F)cc2)c2cccc(C)c2n1	inactive: 7.4%
O=c1[nH]c(=O)c2ccccc2o1	inactive: -6.24%
COc1ccc(-n2nc(C(=O)N3CCC(C)CC3)c3c4ccccc4n(C)c3c2=O)cc1Cl	inactive: -13.3%
CCc1nn(CC(=O)NCCc2ccc(OC)cc2OC)c(=O)c2cc3sccc3n12	inactive: -10.5%

SMILES	activity change, positive = activation
COc1cccc(CNC(=O)Cn2cc3c(n2)-c2c(oc(C(=O)N4CCCC4)c2C)CC3)c1OC	inactive: -29.1%
O=C(NCc1ccc2c(c1)CCN2C(=O)c1ccc(F)cc1)c1ccc(Br)o1	inactive: -25.7%
Cc1cc(C)c(NC(=O)Cn2nc3c(cc2=O)CCCC3)c(C)c1	inactive: -8.56%
COCCCN1C(=O)N(c2ccccc2)C(=O)C1CC(=O)Nc1ccc(F)cc1 (stereo not drawn)	inactive: 8.74%
CCCS(=O)(=O)c1ncc(Cl)c(C(=O)N(Cc2ccccc2)Cc2ccco2)n1	inactive: -89.3%
O=C(Nc1ccc(S(=O)(=O)Nc2ccccc2)cc1)N1CCCC1	inactive: -15.9%
COc1ccccc1NC(=O)N1CC(=O)Nc2sc3c(c2C1c1ccccc1)CCCC3 (stereo not drawn)	inactive: -12.9%
COc1ccccc1NC(=O)C1=C(C)Nc2c(C(=O)Nc3ccc(F)cc3)cnn2C1c1ccc(Cl)cc1 (stereo not drawn)	inactive: -38.1%
CCOc1ccc(CCNC(=O)CCCc2nnc3n(CC(C)C)c(=O)c4sccc4n23)cc1	inactive: -6.47%
COc1ccc2c(Sc3ccccc3)c(C(=O)NCc3cccc(OC)c3OC)[nH]c2c1	inactive: -7.08%
CCOC(=O)c1cc(S(=O)(=O)Nc2ccc(OC)c(Cl)c2)[nH]n1	inactive: -20.5%
CCOC(=O)C1(C)C=C(Nc2ccc(C(N)=O)cc2)C(=O)N1c1ccccc1 (stereo not drawn)	inactive: 5.35%
CN1C(=O)Cc2cc(S(=O)(=O)CCC(=O)Nc3cccc(C(F)(F)F)c3)ccc21	inactive: -6.93%
CC(C)OCCCn1c(SCc2cccc(Br)c2)nc2c(sc3ccccc32)c1=O	inactive: 2.28%
COc1ccccc1Oc1nc2c(c(=O)n(C)c(=O)n2C)n1Cc1cccc(Br)c1	inactive: -27.5%
COCCNC(=O)c1ccc2c(c1)N(Cc1cccc(Cl)c1)C(=O)c1ccccc1S2(=O)=O	inactive: -15.2%
Cc1ccc(OC(=O)c2cc(-c3ccccc3)nc3ccc(C)cc23)cc1	inactive: -9.15%
CC(=O)N1c2ccc(S(=O)(=O)NCC3CCC(C(=O)NCCC(C)C)CC3)cc2CC1C (stereo not drawn)	inactive: -14.6%
CCCc1noc(-c2ccc(N3CCCCC3)c([N+](=O)[O-])c2)n1	inactive: 9.87%
Cc1nc2c(cnn2-c2ccccc2Cl)c(=O)n1-c1ccc(C(C)C)cc1	inactive: -31.7%
CCc1ccc(S(=O)(=O)c2nnn3c2nc(NCCc2ccccc2)c2sccc23)cc1	inactive: -23.4%
COc1cc(NC(=O)Cn2ncc3c(=O)oc4ccccc4c32)cc(OC)c1OC	inactive: -0.808%
CN(C)S(=O)(=O)N(CC(=O)NCCSCc1ccccc1Cl)c1ccccc1	inactive: -21.2%
COc1cccc(-c2nc(SCC(=O)Nc3ccc4c(c3)OCO4)c(-c3ccccc3)[nH]2)c1	inactive: -15.8%
